# Reference: the supplement of paper PMC8728848
# The list shows a part of the results.
# B1: rCnSL-proB (Clitocybe nebularis) (protein)
# chain: PTFSPIFALLAFLPFGTLASLLPQTQLVFRINPNLPGPNDVFVGYRGTNNVVGAIYERDGIKDTPMNNGADAELGPGSYITDDLFTAQIFASGSAGNNPGTTATVCKIYADGVQWRGAPKGYLPVLYFGNGQAAEQTRQTYLQGLDIPGTAIRFANLAKTPNQGPTAPRQMVVPSGGLQTLLKASCFPANHAALPQVLSYFNVRAALPPGWNIRTGPEFPNWTN
# Key:
# Test in all cases: glycan array binding signal (z-score within array); higher = stronger binding
# Conditions in all cases: glycan notation: IUPAC condensed, linker removed
# Glc(b1-6)Glc = target: Glc(b1-6)Glc
# Outline: (§1)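 Negative Z-scores can be read as non-binding. The Z-score is calculated within each array and then averaged across arrays of one protein sequence at different concentrations or buffers and across linkers. Arrays, 3228 in all, were curated from the Consortium for Functional Glycomics database and kept only where the protein sequence was available.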
# GlcA(b1-3)Gal = target: GlcA(b1-3)Gal
# Outline: as §1
# GlcA(b1-3)GlcNAc = target: GlcA(b1-3)GlcNAc
# Outline: as §1
# GlcA(b1-6)Gal = target: GlcA(b1-6)Gal
# Outline: as §1
# [1] = target: GlcA3S(b1-3)Gal(b1-4)GlcNAc(b1-2)Man
# Outline: as §1
# [2] = target: GlcA3S(b1-3)Gal(b1-4)GlcNAc(b1-3)Gal(b1-4)Glc
# Outline: as §1
# [3] = target: GlcNAc(a1-3)Gal(b1-4)GlcNAc
# Outline: as §1
# [4] = target: GlcNAc(a1-4)Gal(b1-3)GlcNAc
# Outline: as §1
# [5] = target: GlcNAc(a1-4)Gal(b1-4)GalNAc
# Outline: as §1
# [6] = target: GlcNAc(a1-4)Gal(b1-4)GlcNAc
# Outline: as §1
# [7] = target: GlcNAc(a1-4)Gal(b1-4)GlcNAc(b1-3)Gal(b1-4)Glc
# Outline: as §1
# [8] = target: GlcNAc(a1-4)Gal(b1-4)GlcNAc(b1-3)Gal(b1-4)GlcNAc
# Outline: as §1
# [9] = target: GlcNAc(a1-4)Gal(b1-4)GlcNAc(b1-3)Gal(b1-4)GlcNAc(b1-3)Gal(b1-4)GlcNAc
# Outline: as §1
# [10] = target: GlcNAc(a1-4)Gal(b1-4)GlcNAc(b1-3)Gal(b1-4)[Fuc(a1-3)]GlcNAc(b1-3)Gal(b1-4)[Fuc(a1-3)]GlcNAc
# Outline: as §1
# [11] = target: GlcNAc(a1-6)Gal(b1-4)GlcNAc
# Outline: as §1
# [12] = target: GlcNAc(b1-2)Gal(b1-3)GalNAc
# Outline: as §1
# [13] = target: GlcNAc(b1-2)Man(a1-3)[GlcNAc(b1-2)Man(a1-6)]Man(b1-4)GlcNAc(b1-4)GlcNAc
# Outline: as §1
# [14] = target: GlcNAc(b1-2)Man(a1-3)[GlcNAc(b1-2)Man(a1-6)]Man(b1-4)GlcNAc(b1-4)[Fuc(a1-6)]GlcNAc
# Outline: as §1
# [15] = target: GlcNAc(b1-2)Man(a1-3)[GlcNAc(b1-4)][GlcNAc(b1-2)Man(a1-6)]Man(b1-4)GlcNAc(b1-4)GlcNAc
# Outline: as §1
# [16] = target: GlcNAc(b1-2)Man(a1-3)[GlcNAc(b1-4)][GlcNAc(b1-2)Man(a1-6)]Man(b1-4)GlcNAc(b1-4)[Fuc(a1-6)]GlcNAc
# Outline: as §1
# [17] = target: GlcNAc(b1-2)[GlcNAc(b1-4)]Man(a1-3)[GlcNAc(b1-2)Man(a1-6)]Man(b1-4)GlcNAc(b1-4)GlcNAc
# Outline: as §1
# [18] = target: GlcNAc(b1-2)[GlcNAc(b1-4)]Man(a1-3)[GlcNAc(b1-4)][GlcNAc(b1-2)Man(a1-6)]Man(b1-4)GlcNAc(b1-4)GlcNAc
# Outline: as §1
# [19] = target: GlcNAc(b1-2)[GlcNAc(b1-4)]Man(a1-3)[GlcNAc(b1-4)][GlcNAc(b1-2)[GlcNAc(b1-6)]Man(a1-6)]Man(b1-4)GlcNAc(b1-4)GlcNAc
# Outline: as §1
# [20] = target: GlcNAc(b1-2)[GlcNAc(b1-4)]Man(a1-3)[GlcNAc(b1-4)][GlcNAc(b1-2)[GlcNAc(b1-6)]Man(a1-6)]Man(b1-4)GlcNAc(b1-4)[Fuc(a1-6)]GlcNAc
# Outline: as §1
# [21] = target: GlcNAc(b1-2)[GlcNAc(b1-6)]Man(a1-6)[GlcNAc(b1-2)Man(a1-3)]Man(b1-4)GlcNAc(b1-4)GlcNAc
# Outline: as §1
# [22] = target: GlcNAc(b1-2)[GlcNAc(b1-6)]Man(a1-6)[GlcNAc(b1-2)Man(a1-3)]Man(b1-4)GlcNAc(b1-4)[Fuc(a1-6)]GlcNAc
# Outline: as §1
# [23] = target: GlcNAc(b1-2)[GlcNAc(b1-6)]Man(a1-6)[GlcNAc(b1-4)][GlcNAc(b1-2)Man(a1-3)]Man(b1-4)GlcNAc(b1-4)GlcNAc
# Outline: as §1
# GlcNAc(b1-3)Fuc = target: GlcNAc(b1-3)Fuc
# Outline: as §1
# GlcNAc(b1-3)Gal = target: GlcNAc(b1-3)Gal
# Outline: as §1
# [24] = target: GlcNAc(b1-3)Gal(b1-3)GalNAc
# Outline: as §1
# GlcNAc(b1-3)Gal(b1-4)Glc = target: GlcNAc(b1-3)Gal(b1-4)Glc
# Outline: as §1
# [25] = target: GlcNAc(b1-3)Gal(b1-4)GlcNAc
# Outline: as §1
# [26] = target: GlcNAc(b1-3)Gal(b1-4)GlcNAc(b1-2)Man(a1-3)[GlcNAc(b1-3)Gal(b1-4)GlcNAc(b1-2)Man(a1-6)]Man(b1-4)GlcNAc(b1-4)GlcNAc
# Outline: as §1
# [27] = target: GlcNAc(b1-3)Gal(b1-4)GlcNAc(b1-2)Man(a1-3)[GlcNAc(b1-3)Gal(b1-4)GlcNAc(b1-2)Man(a1-6)]Man(b1-4)GlcNAc(b1-4)[Fuc(a1-6)]GlcNAc
# Outline: as §1
# [28] = target: GlcNAc(b1-3)Gal(b1-4)GlcNAc(b1-2)[GlcNAc(b1-3)Gal(b1-4)GlcNAc(b1-6)]Man(a1-6)[GlcNAc(b1-3)Gal(b1-4)GlcNAc(b1-2)Man(a1-3)]Man(b1-4)GlcNAc(b1-4)GlcNAc
# Outline: as §1
# [29] = target: GlcNAc(b1-3)Gal(b1-4)GlcNAc(b1-3)Gal(b1-4)GlcNAc
# Outline: as §1
# [30] = target: GlcNAc(b1-3)Gal(b1-4)GlcNAc(b1-3)Gal(b1-4)GlcNAc(b1-2)Man(a1-3)[GlcNAc(b1-3)Gal(b1-4)GlcNAc(b1-3)Gal(b1-4)GlcNAc(b1-2)Man(a1-6)]Man(b1-4)GlcNAc(b1-4)GlcNAc
# Outline: as §1
# [31] = target: GlcNAc(b1-3)Gal(b1-4)GlcNAc(b1-3)Gal(b1-4)GlcNAc(b1-2)Man(a1-3)[GlcNAc(b1-3)Gal(b1-4)GlcNAc(b1-3)Gal(b1-4)GlcNAc(b1-2)Man(a1-6)]Man(b1-4)GlcNAc(b1-4)[Fuc(a1-6)]GlcNAc
# Outline: as §1
# [32] = target: GlcNAc(b1-3)Gal(b1-4)GlcNAc(b1-3)Gal(b1-4)GlcNAc(b1-2)[GlcNAc(b1-3)Gal(b1-4)GlcNAc(b1-3)Gal(b1-4)GlcNAc(b1-6)]Man(a1-6)[GlcNAc(b1-3)Gal(b1-4)GlcNAc(b1-3)Gal(b1-4)GlcNAc(b1-2)Man(a1-3)]Man(b1-4)GlcNAc(b1-4)[Fuc(a1-6)]GlcNAc
# Outline: as §1
# [33] = target: GlcNAc(b1-3)Gal(b1-4)GlcNAc(b1-3)Gal(b1-4)GlcNAc(b1-3)Gal(b1-4)GlcNAc(b1-2)Man(a1-3)[GlcNAc(b1-3)Gal(b1-4)GlcNAc(b1-3)Gal(b1-4)GlcNAc(b1-3)Gal(b1-4)GlcNAc(b1-2)Man(a1-6)]Man(b1-4)GlcNAc(b1-4)GlcNAc
# Outline: as §1
# [34] = target: GlcNAc(b1-3)Gal(b1-4)GlcNAc(b1-3)Gal(b1-4)GlcNAc(b1-3)Gal(b1-4)GlcNAc(b1-2)Man(a1-3)[GlcNAc(b1-3)Gal(b1-4)GlcNAc(b1-3)Gal(b1-4)GlcNAc(b1-3)Gal(b1-4)GlcNAc(b1-2)Man(a1-6)]Man(b1-4)GlcNAc(b1-4)[Fuc(a1-6)]GlcNAc
# Outline: as §1
# [35] = target: GlcNAc(b1-3)Gal(b1-4)GlcNAc(b1-3)Gal(b1-4)GlcNAc(b1-3)Gal(b1-4)GlcNAc(b1-2)[GlcNAc(b1-3)Gal(b1-4)GlcNAc(b1-3)Gal(b1-4)GlcNAc(b1-3)Gal(b1-4)GlcNAc(b1-6)]Man(a1-6)[GlcNAc(b1-3)Gal(b1-4)GlcNAc(b1-3)Gal(b1-4)GlcNAc(b1-3)Gal(b1-4)GlcNAc(b1-2)Man(a1-3)]Man(b1-4)GlcNAc(b1-4)[Fuc(a1-6)]GlcNAc
# Outline: as §1
# [36] = target: GlcNAc(b1-3)Gal(b1-4)GlcNAc(b1-3)Gal(b1-4)GlcNAc(b1-3)Gal(b1-4)GlcNAc(b1-3)Gal(b1-4)GlcNAc(b1-2)Man(a1-3)[GlcNAc(b1-3)Gal(b1-4)GlcNAc(b1-3)Gal(b1-4)GlcNAc(b1-3)Gal(b1-4)GlcNAc(b1-3)Gal(b1-4)GlcNAc(b1-2)Man(a1-6)]Man(b1-4)GlcNAc(b1-4)GlcNAc
# Outline: as §1
# [37] = target: GlcNAc(b1-3)Gal(b1-4)GlcNAc(b1-3)Gal(b1-4)GlcNAc(b1-3)Gal(b1-4)GlcNAc(b1-3)Gal(b1-4)GlcNAc(b1-2)Man(a1-3)[GlcNAc(b1-3)Gal(b1-4)GlcNAc(b1-3)Gal(b1-4)GlcNAc(b1-3)Gal(b1-4)GlcNAc(b1-3)Gal(b1-4)GlcNAc(b1-2)Man(a1-6)]Man(b1-4)GlcNAc(b1-4)[Fuc(a1-6)]GlcNAc
# Outline: as §1
# [38] = target: GlcNAc(b1-3)Gal(b1-4)GlcNAc(b1-3)Gal(b1-4)GlcNAc(b1-3)Gal(b1-4)GlcNAc(b1-3)Gal(b1-4)GlcNAc(b1-2)[GlcNAc(b1-3)Gal(b1-4)GlcNAc(b1-3)Gal(b1-4)GlcNAc(b1-3)Gal(b1-4)GlcNAc(b1-3)Gal(b1-4)GlcNAc(b1-6)]Man(a1-6)[GlcNAc(b1-3)Gal(b1-4)GlcNAc(b1-3)Gal(b1-4)GlcNAc(b1-3)Gal(b1-4)GlcNAc(b1-3)Gal(b1-4)GlcNAc(b1-2)Man(a1-3)]Man(b1-4)GlcNAc(b1-4)[Fuc(a1-6)]GlcNAc
# Outline: as §1
binder,measurement,setting,value
B1,glycan array binding signal (z-score),Glc(b1-6)Glc,-0.778
same,glycan array binding signal (z-score),GlcA(b1-3)Gal,0
same,glycan array binding signal (z-score),GlcA(b1-3)GlcNAc,-0.557
same,glycan array binding signal (z-score),GlcA(b1-6)Gal,0.323
same,glycan array binding signal (z-score),[1],-0.149
same,glycan array binding signal (z-score),[2],-0.717
same,glycan array binding signal (z-score),[3],-0.652
same,glycan array binding signal (z-score),[4],-0.344
same,glycan array binding signal (z-score),[5],-0.497
same,glycan array binding signal (z-score),[6],-0.308
same,glycan array binding signal (z-score),[7],-0.686
same,glycan array binding signal (z-score),[8],-0.819
same,glycan array binding signal (z-score),[9],-0.401
same,glycan array binding signal (z-score),[10],0.803
same,glycan array binding signal (z-score),[11],-0.122
same,glycan array binding signal (z-score),[12],-0.369
same,glycan array binding signal (z-score),[13],-0.434
same,glycan array binding signal (z-score),[14],-0.079
same,glycan array binding signal (z-score),[15],-0.28
same,glycan array binding signal (z-score),[16],-0.568
same,glycan array binding signal (z-score),[17],-0.133
same,glycan array binding signal (z-score),[18],-0.318
same,glycan array binding signal (z-score),[19],-0.186
same,glycan array binding signal (z-score),[20],-0.318
same,glycan array binding signal (z-score),[21],-0.524
same,glycan array binding signal (z-score),[22],0.836
same,glycan array binding signal (z-score),[23],-0.147
same,glycan array binding signal (z-score),GlcNAc(b1-3)Fuc,-0.155
same,glycan array binding signal (z-score),GlcNAc(b1-3)Gal,-0.313
same,glycan array binding signal (z-score),[24],-0.306
same,glycan array binding signal (z-score),GlcNAc(b1-3)Gal(b1-4)Glc,-0.16
same,glycan array binding signal (z-score),[25],-0.358
same,glycan array binding signal (z-score),[26],0.074
same,glycan array binding signal (z-score),[27],0.14
same,glycan array binding signal (z-score),[28],0.831
same,glycan array binding signal (z-score),[29],-0.63
same,glycan array binding signal (z-score),[30],3.21
same,glycan array binding signal (z-score),[31],1.04
same,glycan array binding signal (z-score),[32],0.727
same,glycan array binding signal (z-score),[33],0.44
same,glycan array binding signal (z-score),[34],0.576
same,glycan array binding signal (z-score),[35],0.626
same,glycan array binding signal (z-score),[36],0.063
same,glycan array binding signal (z-score),[37],-0.16
same,glycan array binding signal (z-score),[38],0.742
